Test results reported in patent US7776883B2, “Quinolin-4-ones as inhibitors of retroviral integrase for the treatment of HIV, AIDS and AIDS related complex (ARC)” (The United States of America as represented by the …, priority 2004, dated 2010).
“And” between values parts separate entries of the source, which are not always exact repeats. Equal entries are not always repeated.

Assays:
HIV-1 integrase [1] = biological target: T1, HIV-1 integrase (Human immunodeficiency virus type 1 group M subtype B, UniProt P04585); assay: biochemical; conditions: in vitro
HIV-1 integrase [2] = biological target: T1, HIV-1 integrase; assay: biochemical; conditions: IC50 3′-Processing, in vitro, 21-mer U5 LTR DNA, 30 minutes at 37° C.
[3] = IC50 Strand transfer, 21-mer U5 LTR DNA, 30 minutes at 37° C.

For `O=C(O)C(=O)CC(=O)c1cn(Cc2ccc3ccccc3n2)c2ccccc2c1=O` [RDS2000, 4-[1-(2-Quinolinyl)methyl-1,4-dihydro-4-oxoquinolin-3-yl]-2,4-dioxobutanoic acid], the IC50 (HIV-1 integrase [1]; [3]) was 0.4 µM and the IC50 (HIV-1 integrase [2]) was 70 µM.

With `O=C(O)C(=O)CC(=O)c1cn(CCCCc2ccccc2)c2ccccc2c1=O` [RDS1981, 4-[1-(4-Phenylbutyl)-1,4-dihydro-4-oxoquinolin-3-yl]-2,4-dioxobutanoic acid] the IC50 (HIV-1 integrase [1]; [3]) was under 0.45 µM and the IC50 (HIV-1 integrase [2]) was over 333 µM.

Work on `CCOC(=O)C(=O)CC(=O)c1cn(Cc2cccc(F)c2)c2ccccc2c1=O` [RDS1986, 4-[1-(3-Fluorophenyl)methyl-1,4-dihydro-4-oxoquinolin-3-yl]-2,4-dioxobutanoic acid ethyl ester] yielded an IC50 (HIV-1 integrase [1]; [3]) of 4.9 µM and an IC50 (HIV-1 integrase [2]) of over 12.3 µM.

`COc1ccc(Cn2cc(C(=O)CC(=O)C(=O)O)c(=O)c3ccccc32)cc1` [RDS2035, 4-[1-(4-Methoxyphenyl)methyl-1,4-dihydro-4-oxoquinolin-3-yl]-2,4-dioxobutanoic acid] gave an IC50 (HIV-1 integrase [1]; [3]) of 0.51 µM and an IC50 (HIV-1 integrase [2]) of 28 µM.

`CCOC(=O)C(=O)CC(=O)c1c[nH]c2ccccc2c1=O` [RDS1675, 4-(1,4-dihydro-4-oxoquinolin-3-yl)-2,4-dioxobutanoic acid ethyl ester] showed an IC50 (HIV-1 integrase [1]; [3]) of over 100 µM and an IC50 (HIV-1 integrase [2]) of over 100 µM.

For `O=C(O)C(=O)CC(=O)c1cn(Cc2c(F)cccc2F)c2ccccc2c1=O` [RDS1984, 4-[1-(2,6-Difluorophenyl)methyl-1,4-dihydro-4-oxoquinolin-3-yl]-2,4-dioxobutanoic acid], the IC50 (HIV-1 integrase [1]; [3]) was 0.019 µM and the IC50 (HIV-1 integrase [2]) was 0.7 µM.

`O=C(O)C(=O)CC(=O)c1cnc2cc(Cl)ccc2c1O` [RDS1794] showed an IC50 (HIV-1 integrase [1]; [3]) of over 100 µM and an IC50 (HIV-1 integrase [2]) of over 100 µM.

`CCOC(=O)C(=O)CC(=O)c1cn(Cc2ccccc2)c2ccccc2c1=O` [RDS1992, 4-(1-Phenylmethyl-1,4-dihydro-4-oxoquinolin-3-yl)-2,4-dioxobutanoic acid ethyl ester] gave an IC50 (HIV-1 integrase [1]; [3]) of 0.7 µM and an IC50 (HIV-1 integrase [2]) of over 1000 µM.

`O=C(O)C(=O)CC(=O)c1cn(Cc2cccc(F)c2)c2ccccc2c1=O` [RDS1987, 4-[1-(3-Fluorophenyl)methyl-1,4-dihydro-4-oxoquinolin-3-yl]-2,4-dioxobutanoic acid] was tested, and the IC50 (HIV-1 integrase [1]; [3]) was 0.015 µM and the IC50 (HIV-1 integrase [2]) was 4.6 µM.

Work on `O=C(O)C(=O)CC(=O)c1cn(Cc2ccc([N+](=O)[O-])cc2)c2ccccc2c1=O` [RDS2018, 4-[1-(4-Nitrophenyl)methyl-1,4-dihydro-4-oxoquinolin-3-yl]-2,4-dioxobutanoic acid] yielded an IC50 (HIV-1 integrase [1]; [3]) of 0.64 µM and an IC50 (HIV-1 integrase [2]) of 27 µM.

Work on `CCOC(=O)C(=O)CC(=O)c1cn(Cc2ccc(F)cc2)c2cc(F)ccc2c1=O` [RDS2021, 4-[1-(4-Fluorophenyl)methyl-7-fluoro-1,4-dihydro-4-oxoquinolin-3-yl]-2,4-dioxobutanoic acid ethyl ester] yielded an IC50 (HIV-1 integrase [1]; [3]) of 1.9 µM and an IC50 (HIV-1 integrase [2]) of 25 µM.

In the case of `CCOC(=O)C(=O)CC(=O)c1cn(Cc2ccc(OC)cc2)c2ccccc2c1=O` [RDS2034, 4-[1-(4-Methoxyphenyl)methyl-1,4-dihydro-4-oxoquinolin-3-yl]-2,4-dioxobutanoic acid ethyl ester], the IC50 (HIV-1 integrase [1]; [3]) is reported as over 37 µM and the IC50 (HIV-1 integrase [2]) is reported as over 37 µM.

`CCOC(=O)C(=O)CC(=O)c1c[nH]c2cc(Cl)ccc2c1=O` [RDS1793] was tested, and the IC50 (HIV-1 integrase [1]; [3]) was over 1000 µM and the IC50 (HIV-1 integrase [2]) was over 1000 µM.

With `O=C(O)C(=O)CC(=O)c1cn(Cc2ccc(F)cc2)c2ccc(F)cc2c1=O` [RDS2078, 4-[1-(4-Fluorophenyl)methyl-6-fluoro-1,4-dihydro-4-oxoquinolin-3-yl]-2,4-dioxobutanoic acid] the IC50 (HIV-1 integrase [1]; [3]) was 0.047 µM and the IC50 (HIV-1 integrase [2]) was 2.9 µM.

Compound `O=C(O)C(=O)CC(=O)c1c[nH]c2ccc(Cl)cc2c1=O` [RDS1786] has an IC50 (HIV-1 integrase [1]; [3]) of over 100 µM and an IC50 (HIV-1 integrase [2]) of over 100 µM.

With `CCOC(=O)C(=O)CC(=O)c1cn(Cc2ccc3ccccc3n2)c2ccccc2c1=O` [RDS1999, 4-[1-(2-Quinolinyl)methyl-1,4-dihydro-4-oxoquinolin-3-yl]-2,4-dioxobutanoic acid ethyl ester] the IC50 (HIV-1 integrase [1]; [3]) was 3.5 µM and the IC50 (HIV-1 integrase [2]) was over 1000 µM.

`CCOC(=O)C(=O)CC(=O)c1cn(Cc2ccc(F)cc2)c2cc(Cl)ccc2c1=O` [RDS1788] gave an IC50 (HIV-1 integrase [1]; [3]) of over 100 µM and an IC50 (HIV-1 integrase [2]) of over 100 µM.

For `O=C(O)C(=O)CC(=O)c1cn(Cc2ccc(F)cc2)c2cc(Cl)ccc2c1=O` [RDS1792], the IC50 (HIV-1 integrase [1]; [3]) was 0.11 µM and 0.021 µM and the IC50 (HIV-1 integrase [2]) was 4 µM and 14 µM.

For `O=C(O)C(=O)CC(=O)c1cn(Cc2ccc(F)cc2)c2ccccc2c1=O` [RDS1625, 4-[1-(4-fluorophenyl)methyl-1,4-dihydro-4-oxoquinolin-3-yl]-2,4-dioxobutanoic acid], the IC50 (HIV-1 integrase [1]; [3]) was 0.0313 µM and 0.047 µM, the IC50 (HIV-1 integrase [1]; IC50 value for strand transfer) was about 0.05 µM and the IC50 (HIV-1 integrase [2]) was 2.2 µM and 1.8 µM.

In the case of `CCOC(=O)C(=O)CC(=O)c1cn(Cc2ccc(F)cc2)c2ccc(Cl)cc2c1=O` [RDS1755], the IC50 (HIV-1 integrase [1]; [3]) is reported as over 100 µM and the IC50 (HIV-1 integrase [2]) is reported as over 100 µM.

`CCOC(=O)C(=O)CC(=O)c1cn(Cc2ccccc2F)c2ccccc2c1=O` [RDS1989, 4-[1-(2-Fluorophenyl)methyl-1,4-dihydro-4-oxoquinolin-3-yl]-2,4-dioxobutanoic acid ethyl ester] was tested, and the IC50 (HIV-1 integrase [1]; [3]) was 0.28 µM and the IC50 (HIV-1 integrase [2]) was 125 µM.

With `CCOC(=O)C(=O)CC(=O)c1cn(Cc2ccc([N+](=O)[O-])cc2)c2ccccc2c1=O` [RDS2017, 4-[1-(4-Nitrophenyl)methyl-1,4-dihydro-4-oxoquinolin-3-yl]-2,4-dioxobutanoic acid ethyl ester] the IC50 (HIV-1 integrase [1]; [3]) was over 37 µM and the IC50 (HIV-1 integrase [2]) was over 37 µM.

In the case of `O=C(O)C(=O)CC(=O)c1cn(Cc2ccc(F)cc2)c2ccc(Cl)cc2c1=O` [RDS1787], the IC50 (HIV-1 integrase [1]; [3]) is reported as 0.124 µM and 0.403 µM and the IC50 (HIV-1 integrase [2]) is reported as 28.7 µM and 6.4 µM.

`CCOC(=O)C(=O)CC(=O)c1c[nH]c2ccc(Cl)cc2c1=O` [RDS1754] gave an IC50 (HIV-1 integrase [1]; [3]) of over 100 µM and an IC50 (HIV-1 integrase [2]) of over 100 µM.

`CCOC(=O)C(=O)CC(=O)c1cn(CCCCc2ccccc2)c2ccccc2c1=O` [RDS1980, 4-[1-(4-Phenylbutyl)-1,4-dihydro-4-oxoquinolin-3-yl]-2,4-dioxobutanoic acid ethyl ester] showed an IC50 (HIV-1 integrase [1]; [3]) of 120 µM and an IC50 (HIV-1 integrase [2]) of over 333 µM.

Compound `O=C(O)C(=O)CC(=O)c1cn(Cc2ccccc2)c2ccccc2c1=O` [RDS1993, 4-(1-Phenylmethyl-1,4-dihydro-4-oxoquinolin-3-yl)-2,4-dioxobutanoic acid] has an IC50 (HIV-1 integrase [1]; [3]) of 0.034 µM and an IC50 (HIV-1 integrase [2]) of 4 µM.

`CCOC(=O)C(=O)CC(=O)c1cn(Cc2ccc(F)cc2)c2ccccc2c1=O` [RDS1624, 4-[1-(4-fluorophenyl)methyl-1,4-dihydro-4-oxoquinolin-3-yl]-2,4-dioxobutanoic acid ethyl ester] was tested, and the IC50 (HIV-1 integrase [1]; [3]) was 0.326 µM and 1.76 µM and the IC50 (HIV-1 integrase [2]) was over 100 µM.

`O=C(O)C(=O)CC(=O)c1cn(Cc2ccc(Cl)cc2)c2ccccc2c1=O` [RDS2012, 4-[1-(4-Chlorophenyl)methyl-1,4-dihydro-4-oxoquinolin-3-yl]-2,4-dioxobutanoic acid] was tested, and the IC50 (HIV-1 integrase [1]; [3]) was 0.54 µM and the IC50 (HIV-1 integrase [2]) was 22 µM.

Compound `CCOC(=O)C(=O)CC(=O)c1cn(Cc2ccc3ccccc3c2)c2ccccc2c1=O` [RDS1974, 4-[α-(2-Naphthyl)methyl-1,4-dihydro-4-oxoquinolin-3-yl]-2,4-dioxobutanoic acid ethyl ester] has an IC50 (HIV-1 integrase [1]; [3]) of 32 µM and an IC50 (HIV-1 integrase [2]) of over 333 µM.

`CCOC(=O)C(=O)CC(=O)c1cn(Cc2ccc(F)cc2)c2ccc(F)cc2c1=O` [RDS2077, 4-[1-(4-Fluorophenyl)methyl-6-fluoro-1,4-dihydro-4-oxoquinolin-3-yl]-2,4-dioxobutanoic acid ethyl ester] was tested, and the IC50 (HIV-1 integrase [1]; [3]) was 0.49 µM and the IC50 (HIV-1 integrase [2]) was over 37 µM.

In the case of `O=C(O)C(=O)CC(=O)c1cn(Cc2ccccc2F)c2ccccc2c1=O` [RDS1990, 4-[1-(2-Fluorophenyl)methyl-1,4-dihydro-4-oxoquinolin-3-yl]-2,4-dioxobutanoic acid], the IC50 (HIV-1 integrase [1]; [3]) is reported as 0.016 µM and the IC50 (HIV-1 integrase [2]) is reported as 1.2 µM.

In the case of `O=C(O)C(=O)CC(=O)c1cn(Cc2ccc3ccccc3c2)c2ccccc2c1=O` [RDS1975, 4-[1-(2-Naphthyl)methyl-1,4-dihydro-4-oxoquinolin-3-yl]-2,4-dioxobutanoic acid], the IC50 (HIV-1 integrase [1]; [3]) is reported as under 0.45 µM and the IC50 (HIV-1 integrase [2]) is reported as 18 µM.

`O=C(O)C(=O)CC(=O)c1cn(Cc2ccc(F)cc2)c2cc(F)ccc2c1=O` [RDS2022, 4-[1-(4-Fluorophenyl)methyl-7-fluoro-1,4-dihydro-4-oxoquinolin-3-yl]-2,4-dioxobutanoic acid] showed an IC50 (HIV-1 integrase [1]; [3]) of 0.042 µM and an IC50 (HIV-1 integrase [2]) of 1.9 µM.

`CCOC(=O)C(=O)CC(=O)c1cn(Cc2ccc(Cl)cc2)c2ccccc2c1=O` [RDS2011, 4-[1-(4-Chlorophenyl)methyl-1,4-dihydro-4-oxoquinolin-3-yl]-2,4-dioxobutanoic acid ethyl ester] gave an IC50 (HIV-1 integrase [1]; [3]) of over 37 µM and an IC50 (HIV-1 integrase [2]) of over 37 µM.

Compound `O=C(O)C(=O)CC(=O)c1c[nH]c2ccccc2c1=O` [RDS1680, 4-(1,4-dihydro-4-oxoquinolin-3-yl)-2,4-dioxobutanoic acid] has an IC50 (HIV-1 integrase [1]; [3]) of over 100 µM and an IC50 (HIV-1 integrase [2]) of over 100 µM.

In the case of `CCOC(=O)C(=O)CC(=O)c1cn(Cc2c(F)cccc2F)c2ccccc2c1=O` [RDS1983, 4-[1-(2,6-Difluorophenyl)methyl-1,4-dihydro-4-oxoquinolin-3-yl]-2,4-dioxobutanoic acid ethyl ester], the IC50 (HIV-1 integrase [1]; [3]) is reported as 0.25 µM and the IC50 (HIV-1 integrase [2]) is reported as over 12.3 µM.
